Data as given in the antibiotic and cytotoxicity screens of Wong et al. (2023).
Some of the results follow.

How the values were obtained:
HSkMC = human skeletal muscle cells; assay: cytotoxicity call (relative viability < 0.9); conditions: 10 µM
HepG2 = assay: cytotoxicity call (relative viability < 0.9); conditions: 10 µM
S. aureus RN4220 = assay: growth inhibition call (relative growth <= 0.2); conditions: 50 µM

SMILES	cytotoxicity call (HSkMC)	cytotoxicity call (HepG2)	growth inhibition call (S. aureus RN4220)
Cc1noc(C)c1NC(=O)Nc1ccc2c(c1)C(=O)N([C@@H](C)CO)C[C@@H](C)[C@@H](CN(C)S(=O)(=O)c1ccccc1)OCCCC[C@H](C)O2	inactive	inactive	inactive
COc1ccc(-c2cc(=O)c3c(O)c(OC)c(OC)c(OC)c3o2)cc1OC	inactive	active	inactive
O=C(C[C@@H]1CC[C@H]2[C@@H](COC[C@H](O)CN2C(=O)Nc2ccc(Cl)cc2)O1)NCCc1ccncc1	inactive	inactive	inactive
COc1cc(Nc2nc3ccccc3nc2NS(=O)(=O)c2ccc(NC(=O)c3ccc(C)c(OC)c3)cc2)cc(OC)c1	inactive	inactive	inactive
Cc1noc(C)c1NC(=O)N(C)C[C@H]1OCCCC[C@@H](C)Oc2ccc(NS(=O)(=O)c3ccc(F)cc3)cc2C(=O)N([C@H](C)CO)C[C@H]1C	inactive	inactive	inactive
COc1ccc(S(=O)(=O)N(C)C[C@@H]2Oc3c(NC(=O)Nc4cccc5ccccc45)cccc3C(=O)N(C(C)C)C[C@H]2C)cc1	inactive	inactive	inactive
COc1cccc(C#Cc2ccc3c(c2)O[C@@H](CN(C)C(=O)CN2CCOCC2)[C@H](C)CN([C@H](C)CO)S3(=O)=O)c1	inactive	inactive	inactive
C[C@@H]1CN([C@H](C)CO)C(=O)Cc2cc(NS(=O)(=O)c3ccccc3)ccc2O[C@@H]1CN(C)S(=O)(=O)c1cccs1	inactive	inactive	inactive
C=CCOC(=O)[C@H]1[C@@H]2C(=O)O[C@@H](c3ccccc3)[C@@H](c3ccccc3)N2[C@@H](c2ccc(OCCOC(=O)[C@H]3C[C@H]4C(=O)N[C@@H](Cc5ccccc5)C(=O)N4[C@H]3c3cccc(OCCO)c3)cc2)[C@]12C(=O)Nc1ccccc12	inactive	inactive	inactive
